Reference: PubChem BioAssay AID1508623 (National Center for Advancing Translational Sciences (NCATS), 2021)
Out of some 48,000 compounds screened, about 450 (0.94%) were called active. Not shown: some 19% with an inconclusive outcome. Calls come from the whole dose curve; as a rule, active = well fitted inhibition curve with a large enough effect; inconclusive = small, poorly fitted or top-dose-only effect; inactive = no such curve, though single readings can be large or run the other way. Some of the results follow.

assay: Primary qHTS for Identification of Small Molecule Inhibitors of Huntingtin Promoter Activity; conditions: HEK293 HTT promoter firefly luciferase reporter (activity 0% = vehicle and -100% = no light), 24 h; series mostly up to 57.5 µM; activity change, negative = inhibition: at the top concentration; note: nearly all actives have a fitted effect of over 50% in size
How it was run: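 Quantitative HTS used concentration series of up to 57.5 uM final on HEK293 luciferase reporter cells, 24 h at 37 degrees C. Readout was Dual-Glo firefly luminescence.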
Potency is the fitted concentration of half-maximal effect.

Activity change, negative = inhibition, inactive:
CC(=O)Nc1nonc1-c1nnc(SCc2ccc(F)cc2Cl)n1C -18.8%, Cc1ccc(NC(=O)CN2Cc3ccccc3C2=O)c(C)c1 -10.6%, CCOC(=O)c1cccc(NC(=O)CCS(=O)(=O)c2ccc(Br)s2)c1 -15.2%, Cc1c(C)n(Cc2ccc(F)cc2)c2ccc(C(=O)N3CCN(c4ccc(Cl)cc4)CC3)cc12 -12.6%, Cn1c(=O)c2c(nc(SCC(=O)Nc3ccc(F)cc3F)n2Cc2ccccc2)n(C)c1=O -7.87%, CC1(C(=O)NC2CCCCC2)Cc2ccccc2C(=O)N1Cc1ccc(Cl)cc1 (configuration not stated) -20.5%, CCOC(=O)C1CCN(c2cc3c(cc2NC(=O)c2ccc(OC)c(OC)c2)n(C)c(=O)n3C)CC1 -18.7%, CC1CCCCN1S(=O)(=O)c1ccc(F)c(C(=O)Nc2ccccc2C(F)(F)F)c1 (configuration not stated) -6.92%, COC(=O)c1ccccc1C(=O)c1ccc(OCCN2CCCCC2)cc1 -1.4%, CCC(C)NC(=O)Cn1c(=O)n(CCCC(=O)NCc2ccc(C)cc2)c(=O)c2ccccc21 (configuration not stated) -2.95%, Cc1cn2c(=O)cc(COc3cc(C)c(Cl)c(C)c3)nc2s1 -11.5%, CCOc1ccc(NC(=O)CN(c2ccccc2OCC)S(=O)(=O)c2ccccc2)cc1 -20.6% [at 11.5 µM], CCOc1cc2sc(N3CCC(C(=O)Nc4ccc(C(C)C)cc4)CC3)nc2cc1Br 69.7%, Cc1cc(Cl)ccc1NS(=O)(=O)c1ccc2c(c1)CCN2S(C)(=O)=O -23%, Cc1cc(=O)n(Cc2cccc(Br)c2)c2c1c(C)nn2-c1ccccc1 1.65%, Cc1cccc(CNC(=O)Cc2csc3ccccc23)c1 68.9%, COc1ccc(NC(=O)CC2C(=O)N(c3ccc(OC)cc3)C(=O)N2C2CCCCC2)cc1 (configuration not stated) 26.3%, Cc1ccc(Nc2cc(=O)[nH]c(=O)[nH]2)cc1C -2.79%, COc1cccc(C(=O)N2CC(=O)Nc3ccc(C)cc3C2c2ccc(F)cc2)c1OC (configuration not stated) -29%, COc1ccc(OC)c(CNC(=O)CCc2c(C)nc3c(c2C)c(=O)n(C)c(=O)n3C)c1 -7.42%, Cc1ccc2oc(=O)c(-c3nc4ccc(C)cc4[nH]3)cc2c1 23.2%, COc1ccc(Cl)cc1NC(=O)CSc1nnc(C)n2c1cc1sccc12 1.83%, CCCOc1ccc(CNC(=O)C(C)n2nc(C)n3c(cc4occc43)c2=O)cc1 (configuration not stated) -21.9%, Cc1oc2ncnc(N3CCCCC3)c2c1C(=O)Nc1cccc(Cl)c1C -26.8%, Cn1c2c(c(=O)n(C)c1=O)C(c1cc(Br)ccc1F)CC(=O)N2 (configuration not stated) -0.0025%, Cc1ccc2[nH]c(CSc3nnc(NC(=O)COc4ccccc4C)s3)cc(=O)c2c1 -6.42%, Cc1cccc(C)c1NC(=O)c1c(C)oc2c1C1=NCCN1C=N2 -7.19%, COc1ccc(Nc2cc(C(=O)NCCCN(C)c3ccccc3)c3ccccc3n2)c(OC)c1 -3.36%, Cc1cccc(CCNC(=O)c2ccc3c(c2)nc2n3CCOC2)c1 50.5%, COC(=O)c1ccc(NC(=O)c2cc(S(=O)(=O)N3CCC(C)CC3)cn2C)cc1 -13.7%, CCOC(=O)c1ccc(Nc2nc(N)c3cc(OC)c(OC)cc3n2)cc1 -28.4%, CCn1cc(C(=O)NCCCN2CCC(C)CC2)c(=O)c2cc(S(=O)(=O)N(C)C3CCCCC3)ccc21 -6.64%, COc1ccc(C(=O)c2oc3ccccc3c2NC(=O)COc2cccc(C)c2)cc1 -11.3%, CN1CCC[C@@H]1Cc1c[nH]c2ccc(CCS(=O)(=O)c3ccccc3)cc12 -5.36%, Cc1nn(C)c2c1c(-c1ccccc1)cc(=O)n2C(C)C(=O)NCCc1ccc(Cl)cc1 (configuration not stated) -9.11%, COc1ccc(S(=O)(=O)NCC(c2ccco2)N2CCN(c3ccccc3F)CC2)cc1OC (configuration not stated) -17.7%, CC(C)c1nc2ccc(C(=O)NCc3ccc(F)cc3)cc2o1 -13.1%, CC1CCN(C(=O)c2ccccc2NC(=O)c2nsc3ccccc23)CC1 -0.111%, CCc1cccc(NC(=O)C2CCCN2S(=O)(=O)c2ccc3c(c2)n(C)c(=O)c(=O)n3C)c1 (configuration not stated) -8.6%, COc1ccc(-n2c(SCC(=O)Nc3cc(C)cc(C)c3)nc3c(oc4ccccc43)c2=O)cc1 -4.35%, CCOc1ccc(-c2cc(NC(=O)c3c(F)cccc3F)c(C(=O)OC)s2)cc1 8.3%, COc1ccccc1N1CCN(C(=O)c2nc(-c3ccc(C)cc3)n3c2CCCCC3)CC1 -17.3%, COc1ccc(NC(=O)c2cc(S(=O)(=O)N3CCCCC3)c[nH]2)cc1Cl -22%, Cc1ccc(Cl)cc1NC(=O)c1cnn2c(C(F)F)cc(-c3ccccc3)nc12 0.0095%, Cc1cc(C)c(/C=C/c2onc(C)c2S(=O)(=O)N2CCC(C(=O)NCC(C)c3ccccc3)CC2)c(C)c1 (configuration not stated) -31.4%, Cc1cc(NC(=O)CC(C)C)cc(-c2nc3ncccc3o2)c1O -5.93%, CC(C)[N+](C)(CCOC(=O)C1c2ccccc2Oc2ccccc21)C(C)C -5.65%, Cc1ccc(CNC(=O)CCCCn2c(=O)c3ccccc3n(Cc3ccc(C)cc3)c2=O)cc1 -7.44%, CCOC(=O)c1c(S(=O)(=O)N2CCC(C(=O)NCc3ccccc3OC)CC2)c(C)n(C)c1C -6.05%, CCCCSCCCNC(=O)c1cn(C)c2ccc(S(=O)(=O)N3CCCC3)cc2c1=O -21.6% [at 11.5 µM], Cc1cc(C)cc(OCC(=O)N(Cc2ccc(Cl)cc2)CC2CCCO2)c1 (configuration not stated) -14.9%, O=C(NC1CCCC1)c1ccc2c(=O)n(Cc3ccccc3)c(SCc3ccccc3)nc2c1 -5.65%, Cc1ccc(-n2nc(C(=O)Nc3ccc(C)c(F)c3)c(=O)n(C)c2=O)cc1 -3.18%, COc1ccc(-c2nc3ccc(C)cn3c2Nc2ccc3c(c2)OCO3)cc1 15.1%, COc1cc(C(=O)N2CCN(c3ccc(Nc4ccccc4)nn3)CC2)cc(OC)c1OC -6.92%, Cc1ccc(-n2nnnc2CNC(=O)c2ccccc2)cc1C 1.47%, CC1CCCCN1S(=O)(=O)c1cc2c3c(c1)CC(=O)N3CCC2 (configuration not stated) -20.7%, COc1cc(C(=S)N2CCOCC2)cc(OC)c1OC 6.57%, O=C(Cn1c(=O)n(Cc2ccc(C(=O)NCc3ccccc3Cl)cc2)c(=O)c2ccccc21)Nc1ccc(F)c(Cl)c1 -7.1%, COc1ccc(N2CC(NC(=O)COc3ccc4ccccc4c3)CC2=O)cc1 (configuration not stated) -20.3%, CN(C)S(=O)(=O)c1ccc2c(c1)N(CC(=O)N1CCN(c3ccccc3F)CC1)CCS2 -16.6%, COc1cccc(C(=O)Nc2ccccc2-c2nc3ccccc3s2)c1 -9.52%, Cc1cccc(CNC(=O)CN2C(=O)CCCc3ccccc32)c1 18%, Cc1ccc(-c2nc(CS(=O)(=O)CC(=O)NCc3ccccc3Cl)c(C)o2)cc1 -2.22%, CC(C)Cc1ccc(CC(=O)O)cc1 6.93%, Cc1oc(-c2cccc(Cl)c2)nc1CN1CCCC(C(=O)NCc2ccc(Cl)cc2)C1 (configuration not stated) -13.1%, NC(N)=NCCC[C@H](N)C(=O)O 10.3% [at 6.01 µM], O=S(=O)(c1ccc2[nH]c3c(c2c1)CCCCC3)N1CCN(c2cccc(Cl)c2)CC1 -0.646%, CC1=C(C(=O)Nc2cccc(C(F)(F)F)c2)C2(CCCCC2)OC1=O -24.9%, Cc1cccc(NC(=O)c2sc(-n3nc(C)c(CCC(C)C)c3C)nc2C)c1C -2.67%, CCOC(=O)C1CCN(c2c(C(=O)c3ccc(C)cc3)cnc3ccc(F)cc23)CC1 -12.1%, COc1ccc(NC(=O)CN2C(=O)c3ccccc3Sc3ccc(C(=O)N4CCOCC4)cc32)c(OC)c1 -22.1%, COc1cc(C(=O)OCc2cc(=O)n3nc(C(C)C)sc3n2)cc(OC)c1OC -16.7%, COc1cc(NC(=O)c2cccc(F)c2)ccc1NC(=O)c1cc2ccccc2o1 11.8%, CCOc1ccccc1NC(=O)CN1CCCN(Cc2cccc(Cl)c2)S1(=O)=O -13.6%, O=C(Nc1ccc(Oc2ccnc3[nH]ccc23)c(F)c1)c1cccn(-c2ccc(F)cc2)c1=O -1.11%, CCOC(=O)c1cccc(NS(=O)(=O)c2cc3[nH]c(=O)c(=O)[nH]c3cc2C)c1 13.1%, Cc1nc2ncnn2c(C)c1CCC(=O)N1CCN(c2cccc(Cl)c2)CC1 -1.86%, CCc1ccc(NC(=O)c2nnn(Cc3cccc(C(F)(F)F)c3)c2N)cc1 -11.8%, COc1cccc(CNC(=O)c2ccc3c(c2)nc2n3CCCCC2)c1OC 23.3%, COc1ccc(NC(=O)Nc2c[nH]c(=O)[nH]c2=O)c(OC)c1 3.78%, Cc1cccc(-n2c(C)nc3cc(C(=O)NC4CCCCCC4)ccc32)c1 3.41%, Cc1c(C(=O)N(Cc2ccc(Cl)cc2)CC2CCCO2)oc2ccc(F)cc12 (configuration not stated) -16.5%, COc1ccccc1CNC(=O)CSc1ncc2c(n1)-c1cc(Cl)ccc1N(Cc1ccccc1)S2(=O)=O -9.28%, CCOc1ccc(-c2nc(SCC(=O)NCCCOC)c(-c3ccccc3)[nH]2)cc1 24%, COc1ccccc1Oc1c(NS(=O)(=O)c2ccc(C(C)(C)C)cc2)nc(-c2ncccn2)nc1OCCO -8.67%, CSc1ccc(CC2C(=O)Nc3ccccc32)cc1 (configuration not stated) -8.02%, O=C(Cc1ccccc1F)N1CCC(c2nc3c(nnn3Cc3ccc(F)cc3)c(=O)[nH]2)CC1 -22.7%, O=C(CS(=O)(=O)c1cccc2nsnc12)Nc1cc(F)ccc1F 2.11%, N#C/C(=C\c1ccccc1)C(=O)Nc1sc2c(c1C(N)=O)CCC2 -4.63%, CCc1ccccc1NC(=O)C1COc2ccccc2C1 (configuration not stated) -8.54%, Cn1cnc(S(=O)(=O)N2CCC(C(=O)N3CCN(c4ccc(Cl)cc4)CC3)CC2)c1 -25.2%, N[C@H](C(=O)O)[C@@H](O)c1ccc(O)c(O)c1 5.27%, COc1cccc(C2C(C(=O)Nc3ccccc3)=C(C)Nc3nnnn32)c1OC (configuration not stated) -8.83%, Cc1cc(C)cc(OCC(=O)Nc2ccc(Cl)c(-c3nc4ncccc4o3)c2)c1 -20.8%, N#Cc1ccc(OC(=O)c2cc(-c3ccc4c(c3)OCCO4)on2)cc1 45.1%

Potency, active:
CCCOCc1cc(CN2CCN(c3cccc(Cl)c3)CC2)c(O)c2ncccc12 8.91 µM
